According to paper PMC4336329 (PLoS ONE, 2015):
Hit rate of the full screen: of about 310,000 compounds, about 14,000 (4.5%) showed an effect of 50% or more. The effect is printed as a negative number. Some of the results follow. Where a SMILES comes first, the peptide text is derived from it. [ ]: non-standard residue; d: D form. The star is where a group is joined. ξ: configuration not given here. ξY = NC(Cc1ccc(O)cc1)C(=O)O; Cbz = O=C(OCc1ccccc1)*; OtBu = CC(C)(C)O*; tBu = CC(C)(C)*

The molecules below were run against human ether-à-go-go-related gene (hERG) potassium channel (human, UniProt Q12809) (assay: primary screen, population patch clamp on CHO cells stably expressing hERG).
human ether-à-go-go-related gene (hERG) potassium channel, sequence (Q12809 whole entry, looked up): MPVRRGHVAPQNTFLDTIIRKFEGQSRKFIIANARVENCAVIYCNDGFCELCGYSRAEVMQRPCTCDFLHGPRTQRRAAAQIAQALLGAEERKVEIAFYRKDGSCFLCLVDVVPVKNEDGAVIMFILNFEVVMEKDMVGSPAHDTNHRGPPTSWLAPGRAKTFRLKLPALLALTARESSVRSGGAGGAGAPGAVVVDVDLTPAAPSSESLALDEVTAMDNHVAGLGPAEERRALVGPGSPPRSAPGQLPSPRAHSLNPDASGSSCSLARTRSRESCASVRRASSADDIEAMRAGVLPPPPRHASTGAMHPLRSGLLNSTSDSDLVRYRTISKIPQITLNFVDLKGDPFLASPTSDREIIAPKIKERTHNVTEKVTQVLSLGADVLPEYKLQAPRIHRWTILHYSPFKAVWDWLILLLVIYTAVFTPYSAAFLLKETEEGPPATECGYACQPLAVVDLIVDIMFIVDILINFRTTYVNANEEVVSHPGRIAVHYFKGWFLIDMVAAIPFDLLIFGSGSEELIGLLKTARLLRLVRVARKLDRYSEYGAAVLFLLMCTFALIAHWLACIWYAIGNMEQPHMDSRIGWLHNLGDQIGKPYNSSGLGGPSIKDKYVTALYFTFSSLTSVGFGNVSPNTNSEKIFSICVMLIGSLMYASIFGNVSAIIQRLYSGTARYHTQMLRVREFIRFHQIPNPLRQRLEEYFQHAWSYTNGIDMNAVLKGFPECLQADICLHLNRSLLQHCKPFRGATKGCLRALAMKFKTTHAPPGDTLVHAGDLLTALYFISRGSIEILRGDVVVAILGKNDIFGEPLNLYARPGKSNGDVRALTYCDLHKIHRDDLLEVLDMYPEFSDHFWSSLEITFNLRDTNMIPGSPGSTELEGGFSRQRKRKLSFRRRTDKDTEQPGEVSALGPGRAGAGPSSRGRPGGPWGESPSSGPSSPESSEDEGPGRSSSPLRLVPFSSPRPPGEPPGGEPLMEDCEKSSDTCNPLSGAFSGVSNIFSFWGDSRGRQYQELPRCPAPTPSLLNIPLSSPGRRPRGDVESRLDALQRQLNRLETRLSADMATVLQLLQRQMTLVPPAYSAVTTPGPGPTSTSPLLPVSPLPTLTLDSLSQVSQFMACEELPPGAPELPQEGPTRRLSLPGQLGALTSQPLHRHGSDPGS
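Note: peak tail current of the secondary pulse compared with the same well before compound.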

SMILES | hERG current change (%, negative = inhibition) at 10uM [%]
Cc1ccc(C(=O)c2ccccc2C(=O)OCC(=O)Nc2ccc(SC(F)F)cc2)cc1 | 3.08
O=C(COc1ccc(Cl)cc1)N/N=C/c1cccc2cccnc12 | -20
CC(=O)Nc1ccc(C2=NN(c3ccccc3)C(c3ccccc3)C2)cc1 (stereo not shown) | 4.25
CC1CCCN(C(=O)COC(=O)/C=C/c2ccc(C(F)(F)F)cc2)C1 (stereo not shown) | -7.37
O=C(Nc1cccc(Cl)c1)C1C2CCC3C(CCC21)C3(Cl)Cl (stereo not shown) | 9
CC(CNC(=O)CCC(=O)N1CCOc2ccccc21)c1ccccc1 (stereo not shown) | -9.84
CC12C(=O)N(Cc3ccccc3)C(=O)C1C1C=CC2C1 (stereo not shown) | -2.04
CC(=O)c1ccc(S(=O)(=O)NCc2ccc(C(=O)NCC(c3ccccc3)N(C)C)cc2)cc1 (stereo not shown) | 16.2
O=[N+]([O-])c1ccccc1NCCNc1ncc(C(F)(F)F)cc1Cl | -3.33
CCCCN(C(=O)c1cc2c(s1)CCC2)c1c(N)n(CCCC)c(=O)[nH]c1=O | -0.537
Cc1cc(OC(C)C(=O)NCc2cccnc2)c2c(C)c(C)c(=O)oc2c1 (stereo not shown) | 23.7
CC1CCCN(C(=O)C(C)Nc2cc(Cl)ccc2N2CCOCC2)C1 (stereo not shown) | -17.4
CC(C)(C)c1ccc(C(=O)/C(C#N)=C/c2cccs2)cc1 | 7.3
CCOC(=O)/C=C1\SCC(=O)N1CC(=O)NC12CC3CC(CC(C3)C1)C2 | -10.3
N#CCc1nn(-c2ccc(F)cc2)c(N)c1C#N | 23.1
Nc1ccc(-c2nc3ncccc3o2)c(Cl)c1 | 6.36
CNC(=O)c1ccc(-c2sc3nc(N4CCOCC4)c4c(c3c2N)CCCC4)o1 | -20.5
Cl.O=S(=O)(c1cccc2cnccc12)N1CCCNCC1 | 4.6
COCC(C)Nc1ccc(S(=O)(=O)N2CCCC2)cc1[N+](=O)[O-] (stereo not shown) | 0.637
NC(=O)CCN1CCN(C(=O)c2ccc3nc(Cc4cccc(Cl)c4)oc3c2)CC1 | -13.9
CCN(CCCNC(=O)C1CCN(S(=O)(=O)c2c(C)[nH]c(=O)[nH]c2=O)CC1)c1cccc(C)c1 | 3.07
Cc1cc(C)n(CC2CC(=O)N(c3cc(Cl)cc(Cl)c3)C2=O)n1 (stereo not shown) | -6.27

SMILES | hERG current change (%, negative = inhibition) at 10uM [%]
O=C(NCC1CCCO1)c1ccc(N2C(=O)C3CCCCC3C2=O)cc1 (stereo not shown) | 6.36
CCOc1ccc(S(=O)(=O)N(C)CC(=O)NCc2ccccn2)cc1 | 5.47
CCCn1nnc(NC(=O)c2ccc(F)cc2)n1 | 3.93
O=C(CN1C(=O)C2C3CC(C(Br)C3Br)C2C1=O)N1CCN(Cc2ccccc2)CC1 (stereo not shown) | -19.7
CC(Oc1cccc(F)c1)c1ccnc2nc(/N=C/N(C)C)nn12 (stereo not shown) | 8.85
CCOc1ccc(CNCCCSc2ncccn2)cc1 | -47.1
COC(=O)C1=COC(C)C2CN3CCc4c([nH]c5ccccc45)C3CC12 (stereo not shown) | -34.3
O=C(O)/C=C/C(=O)NNC(=O)c1ccccc1Br | 2.8
COc1ccc(OCC(=O)NNC(=S)NC(=O)C2CC2)cc1 | 2.3
Cn1ccnc1SCC(=O)Nc1cc(S(=O)(=O)N2CCOCC2)ccc1Cl | -5.42
COc1ccccc1CNCC(=O)Nc1cc(S(=O)(=O)N2CCOCC2)ccc1Cl | -27
CC(C)C(=O)NS(=O)(=O)c1ccc(N)cc1 | 8.54
S=c1[nH]nc(C2CCCCC2)n1/N=C/c1ccccc1Cl | 16.2
CCCCn1c(N)c(N(CCC(C)C)C(=O)CSc2nnc(Nc3ccccc3)s2)c(=O)[nH]c1=O | 1.18
Cc1ccc(N2C(=O)[C@@H]3[C@H](C2=O)C2c4ccccc4C=CN2[C@@H]3C(=O)c2ccco2)c(C)c1 (stereo partly shown) | -5.68
COc1ccccc1-c1nc2cc3ccccc3cc2nc1-c1ccccc1 | -0.34
CC(=O)N/C(=C\c1ccccc1)C(=O)OC(C)C(=O)Nc1ccccc1F (stereo not shown) | 9.58
Cn1c(SCC(=O)NCc2ccc3c(c2)OCO3)nc2c(c1=O)SCC2 | -21
COc1ccc(CNC(=O)C2CCN(S(=O)(=O)N3CC(C)CC(C)C3)CC2)cc1 (stereo not shown) | 22.9
CCOc1ccc(NS(=O)(=O)c2c(C(=O)N3CCCCCC3)c(C)n(C)c2C)cc1 | 8.34
O=[N+]([O-])c1ccc(CSc2nnc(Cc3ccccc3)n2-c2ccc(F)cc2)cc1 | -48.7
CC1(C)Oc2ccc3ccc(=O)oc3c2[C@@H](O)[C@H]1O | 15.5

SMILES | hERG current change (%, negative = inhibition) at 10uM [%]
O=C1CC(=O)Nc2cc(S(=O)(=O)Nc3ccc(Cl)c(C(F)(F)F)c3)ccc2N1 | 16.8
O=C(O)c1ccc(CSc2nnc(-c3ccncc3)n2-c2ccc(Cl)cc2)cc1 | 8.71
O=S1(=O)NC(=NCCc2ccccn2)c2ccccc21 | 11.5
CC(C)(C)OC(=O)N1CCC(CC2CC(c3ccccc3)=NO2)(C(=O)O)CC1 (stereo not shown) | 14.7
O=C1Cc2ccccc2N1c1ccccc1 | -5.58
O=C(NCCO)c1ccc2[nH]c3c(c2c1)CCCC3 | -0.0914
Cn1c(Cc2nc(-c3cnccn3)no2)nnc1SCC(=O)Nc1ccccc1 | 1.06
COc1ccc(OC)c(NC(=S)NCc2ccccc2OC)c1 | 5.94
CCOC(=O)C1CCN(C(=O)c2cc3cc(F)ccc3[nH]2)CC1 | -49.5
Nc1ccc(Cl)c[n+]1Cc1cccc2cccnc12.[Br-] | -46.1
CSc1ccccc1NC(=O)CN(C)C(=O)c1ccc(NC(=O)c2cccs2)cc1 | 9.13
COc1ccc(CC(=O)OCC(=O)Nc2ncc(Cl)cc2Cl)cc1OC | 13.5
O=C(Oc1cccnc1)c1cc(S(=O)(=O)N2CCOCC2)ccc1Cl | -13.9
Cc1ccc(CN(C)C(=O)COC(=O)CSc2ccc(C(N)=O)cc2[N+](=O)[O-])cc1 | -9.91
COc1ccc(C(=O)N/N=C\c2ccoc2)cc1 | 20.8
O=C(NC(=S)Nc1cc(Cl)ccc1N1CCOCC1)c1ccccc1[N+](=O)[O-] | 4.51
CCOC(=O)c1cn2nc(Oc3cccc(F)c3)ccc2n1 | -11.6
CC(C)(C)OC(=O)C(Cc1ccc(OC(C)(C)C)cc1)NC(=O)CNC(=O)CNC(=O)OCc1ccccc1 (stereo not drawn) (Cbz-Gly-Gly-[ξY](tBu)-OtBu) | -2.33
Br.Cc1ccccc1Cn1c(=N)n(CC(=O)c2ccco2)c2ccccc21 | -65
COc1ccc(C(C(=O)NC2CCCCC2)N(C(=O)CCl)c2ccc(C)cc2)cc1 (stereo not shown) | 2.21
Oc1c(Br)cccc1/C=N/Nc1c(F)c(F)c(F)c(F)c1F | -3.97
CCOc1cc(C)c(S(=O)(=O)N2CCCC2)cc1C | -14.6

SMILES | hERG current change (%, negative = inhibition) at 10uM [%]
COc1ccc(NC(=O)c2nc3nc(C)cc(C(F)F)n3n2)cc1OC | 4.43
CC1CCc2c(c3ccccc3[nH]c2=O)O1 (stereo not shown) | 6.76
CCCCC(=O)Nc1cc(-c2nc3ncccc3o2)ccc1C | -1.76
COc1cccc(-c2nnc3sc(-c4ccco4)nn23)c1 | 16.4
O=C(O)c1cccc(NC(=O)c2ccc(N3C(=O)c4ccc(C(=O)Nc5cccc(C(=O)O)c5)cc4C3=O)cc2)c1 | -2.1
Cc1c(NC(=O)CN2CCN(c3ccc([N+](=O)[O-])cc3)CC2)c(=O)n(-c2ccccc2)n1C | -50.1
Cn1c(=O)c2c(nc(SC3C(=O)CC(C)(C)CC3=O)n2C)n(C)c1=O | 6.36
COc1cc(NS(=O)(=O)c2ccc(NC(=O)c3ccc([N+](=O)[O-])cc3)cc2)ncn1 | -4.86
Cc1occc1-c1nnc(SCC(=O)N2CCCCC2)o1 | -8.31
COc1ccc(NC(=O)c2cccc(N3C(=O)C4C5C=CC(C5)C4C3=O)c2)c(OC)c1 (stereo not shown) | 0.993
Cc1ccc(NC(=O)C(C)N2C(=O)C3C4CC(C(Br)C4Br)C3C2=O)cc1 (stereo not shown) | 16.4
O=C(Nc1cccc(-c2cn3c(n2)SCC3)c1)c1ccc(Br)o1 | -2.79
O=C1Nc2ccc(Br)cc2C1(O)Cc1ccncc1 (stereo not shown) | -2.45
O=C(COc1ccccc1)Nn1c(-c2ccccc2)nc2ccccc2c1=O | -9.19
O=C1CC(C(=O)Nc2ccc(Cl)cc2)n2ncnc2N1 (stereo not shown) | 5.96
Cn1nnnc1SCCNC/C=C/c1ccccc1 | -15.3
COc1cccc(-c2ccc(=O)n(CC(=O)Nc3cc4c(cc3NC(C)=O)OCCO4)n2)c1 | 4.63
CC1(C)[C@H]2CC[C@]1(C)[C@@H](OC(=O)C[N+]1(C)CCOCC1)C2.[I-] | 14
CC1(C)CC(=O)C2=C(C1)OC(N)=C(C#N)C2c1cn(-c2ccccc2)nc1-c1ccc(F)cc1 (stereo not shown) | -25.5
